# Laboratory results as given in the RNAGym collection of RNA variant scans (doi:10.7554/elife.90254).
# The source gives no read counts; variants with many changes may rest on few reads.
# B1: LINE1-mini (parent)
# chain: GGCAGAGCUCAACACAGCGUGGCAAAGUGGCUGUGGCUAGACUGCC
# Variants of: B1
# Experiment: self-cleavage, relative activity (ratio to wild type); higher = more cleavage; in vitro, sequencing; the parent is a self-cleaving ribozyme
row,Variant,self-cleavage
1,GGCAGAGAUAAACACAGCGUGGCAAAGUGGCUGUGGCUAGACUGCA,0.04
2,GGCAGAGAUCAACACAGCGUGGUAAAGUGGCUGUGGCUAGGCUGCC,0.34
3,GGCAGAGAUCAACACAGGGCGGCAAAGUUGCUGUGGCUAAACUGCC,0.03
4,GGCAGAGAUCAACAGAGCGUGGCAAAGUGGCUGUGGCUAGAAUGCC,0.11
5,GGCAGAGAUCAACACAGUGUGGCAAAGGGGCUGUGGCUAGACUGCC,0.07
6,GGCAGAGAUGAGCACAGCGUUGCAAAGUGGCUGUGUCUAGUCUCCA,0
7,GGCAGAGAUCAACACAGAGUCGCAAAGUGGCUUUGGCUAGACUGCC,0.09
8,GGCAGAGAUCAACACAGCGUGGCAAUUUGGCUGUGGCUAGACAGCC,0.16
9,GGCAGAGAUCAACACAGCGUGGCAAAGUGGGUGUGGCUAUACUGCC,0.21
10,GGCAGAGAUCAACACAGCGUGGCAAAGUGGCUGUGGCUCUACUGCA,0.02
11,GGCAGAGAUCAAUACAGCGUGGCAAAGUGGCUGUGCCUAGAAUGCC,0.16
12,GGCAGAGAUCAACAGAGCGUGCCAAAGUGGCUGUGGCUUGACUGCC,0.04
13,GGCAGAGAUAGGCACAGCGUGGCAAAGUGGCUGUGGCUCGACUGCC,0
14,GGCAGAGAUCAACACAGUGUGGCAAAGUGGCUGUGGGUAGACUGCC,0.12
15,GGCAGAGAUCAAGACAGCGUGGCAAAGUGGCUGUGGCUAUACUGCC,0.03
16,GGCAGAGAUCAACAAAGCGUGGCAAAGUGGCUGUGGUUAGACUGAC,0.41
17,GGCAGAGAUCAACACAGCGUGGCAAAGUGGGAGUGGCUAGACUGCC,0.15
18,GGCAGAGAUCAACACAGUGUGGCAAAUUGGCUGUGGCUAGACUGCC,0.28
19,GGCAGAGAUCAACACAGUGUGGAAAAGUGGCUGUGACUAGUCUGCC,0.4

row,Variant,self-cleavage
1,GGCAGAGAUCAACACAGCGUGGGACCGUGGCUUUGGCUAGACUGCC,0.04
2,GGCAGAGAUCAACACAGCGUGGCAAAGUGGUUGUGGCUGGACUGCC,0.16
3,GGCAGAGAUCAACACAGCGUGGCAAAGUGGCUGUGGCUCAACUGCC,0.21
4,GGCAGAGAUCAACACAGAGUGGCAAAGUGGCGGUGGCUAGACUGCC,0.14
5,GGCAGAGAUCAACACAGCGUGGCAAAGUGGCUGUGGCUCAACUGUC,0.05
6,GGCAGAGAUCAACAUAGCGUGCCAAAGUUGCUGUGGCUAGACUGCC,0.34
7,GGCAGAGAUAAACACAGCGUGGUAAAGUGGCUGUGGCUAGACUGCC,0.05
8,GGCAGAGAUAAUCACAGCGUGGCAAAGCGGCUGUGGCUAGACUGAC,0.02
9,GGCAGAGAUAAACACAGAGUGGCAAAGUGGCCGUGGCUAGACUGCC,0.01
10,GGCAGAGAUCAACACAGCGUGGGAAAUUGGCUCUGGCUAGACUGCC,0.04
11,GGCAGAGAUCAACACAGCGUGGCAAUGUGGCUGUGUCUAGACUGCC,0.03
12,GGCAGAGAUGAACACAGCGUUGCAAAGUGGCUCUGGCUAAACUGCC,0.01
13,GGCAGAGAUCAACACAGCGUGGCAAAGUGGUUGUGGGUAGACUGCC,0.48
14,GGCAGAGAUCAACAAAUCGUCGCAAAGUGGCUGUGGCAAAACUGCC,0.06
15,GGCAGAGAUCAACACAGCGUGGUAUAGUGGCUGUGGCUAGACUGCC,0.12
16,GGCAGAGAUCAAGACGGCGUAGCAAAGUGGCUGUGGCUAUACCGCC,0.03
17,GGCAGAGAUCAACAUAGCGUGGCAAAGUGGCUGUGGCAAGACUGCC,0.52
18,GGCAGAGAUUAACAUAGCGUGGCAAAGUGACUGUGGGUAGACUGCC,0.09
19,GGCAGAGAUAAACACAGCGUGGUAAAGUGGCUAUGGCUAGACGGCC,0.04

row,Variant,self-cleavage
1,GGCAGAGAUAAACAGAGCGUGGCAAAGUGGCUGGGGCUCGACUGGC,0.01
2,GGCAGAGAUCAACACAGCGUGGCAAAGUGGGUUUGGCUAGACUGCC,0.04
3,GGCAGAGAUUAACACAGCGUGGCAGAGGGGCUGUGGCUAGACUGCC,0.03
4,GGCAGAGAUUAACACAGCGUGGCAUAGUGGCUGUGGCUAGACUGCC,0.04
5,GGCAGAGAUCAAUACAGCGUUGCAAAGUGGCUGUGCCUACACUGCC,0.56
6,GGCAGAGAUAAACACAGUGUGGCAAGGUGGCUGUGGUUAGACUGCC,0.02
7,GGCAGAGAUCAACAAAGCGUGGGAAAGUGGCUGUGGCUAGACUACC,0.21
8,GGCAGAGAUCAACAUAGUGUGGCAAAGUGAUUGUGGCUAGACUGCC,0.19
9,GGCAGAGAUGAACACAUAGUGGCAAUGUGGCUGUGCCUAGACUGUC,0.01
10,GGCAGAGAUCAACAGAGCGUGGCAAAGUGGCUGUGGCUAUACUGCC,0.95
11,GGCAGAGAUUAACACAGCGUGGCAAAGUGGCUGUCGCUAGACUGCC,0.04
12,GGCAGAGAUCAACACAGUGUGGCAAAGUGGCUGUGGCUAGACUGGC,0.19
13,GGCAGAGAUCAACACAGCGUGGAAAAGGGGCUGUGGCAAGACUGCC,0.03
14,GGCAGAGAUCAAGACAGCGUGGCCAAGUGGCUGUGGCUAGACUGCC,0.28
15,GGCAGAGAUCAACACAGCGUGGCAAUGUGGCUGUAGCUAGACUGCA,0.99
16,GGCAGAGAUCAAAAUAGCGUGGCAAAGUGGCUGUGGCUAGACUGCC,0.56
17,GGCAGAGAUCAACACAGGGUGGCAAAGUGGCUGUGGCUAGACUCCC,0.08
18,GGCAGAGAUCAAGACUGCGUCGCAAAGUGGCUGAGGCUAGACUGCC,0.29
